Single values of this set are uncertain.
experiment: amyloid nucleation score relative to library mode (yeast Sup35 reporter selection) (log enrichment difference); higher = more amyloid nucleation; sequences are the first 22 residues of the Bri2 peptide extended by up to 12 random residues; details: random library (experiment): 1;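 active = nucleation score significantly above 0 at FDR 0.05; inactive = not significantly above 0 or absent from output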
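Note: [psi-pin-] Saccharomyces cerevisiae expressing SupN fusions, induced by 100 µM Cu2SO4, selected 7 d at 30 °C without adenine and uracil, scored by deep sequencing of output versus input.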

Sequence	amyloid nucleation score
EASNCFAIRHFENKFAVETLICCTCIFSEDKELR	9.55
EASNCFAIRHFENKFAVETLICGCLRMSWRRGVQ	4.04
EASNCFAIRHFENKFAVETLICLFRVPAERGPRG	inactive
EASNCFAIRHFENKFAVETLICGSAWIGRWSIGW	inactive
EASNCFAIRHFENKFAVETLICVAVPKSSGQTAL	inactive
EASNCFAIRHFENKFAVETLICRLSSSVRRDSLR	inactive
EASNCFAIRHFENKFAVETLICVLKCVLLIARH	inactive
EASNCFAIRHFENKFAVETLICHINVVIGYDGGG	7.08
EASNCFAIRHFENKFAVETLICKCLCPIFPVHPE	7.36
EASNCFAIRHFENKFAVETLICCSIYYKSWCGRT	6.73
EASNCFAIRHFENKFAVETLICRVIC	inactive
EASNCFAIRHFENKFAVETLICGPTMMERVTRFR	inactive
EASNCFAIRHFENKFAVETLICGSRWR	inactive
EASNCFAIRHFENKFAVETLICEPLSKRNRMFDD	inactive
EASNCFAIRHFENKFAVETLICVCKECSTVSPG	inactive
EASNCFAIRHFENKFAVETLICREFSTWDQLSCN	inactive
EASNCFAIRHFENKFAVETLICAYCMSNTLMSRV	inactive
EASNCFAIRHFENKFAVETLICLMLCS	6.49
EASNCFAIRHFENKFAVETLICTG	inactive

Sequence	amyloid nucleation score
EASNCFAIRHFENKFAVETLICADVRMMFCCSVG	6.43
EASNCFAIRHFENKFAVETLICDGGVLPYVVASL	inactive
EASNCFAIRHFENKFAVETLICANFGKRRFESLI	inactive
EASNCFAIRHFENKFAVETLICQGR	inactive
EASNCFAIRHFENKFAVETLICQKMGGTSSRVGE	inactive
EASNCFAIRHFENKFAVETLICLRLDDVTLTSFG	inactive
EASNCFAIRHFENKFAVETLICEKSKLYSMGGSW	inactive
EASNCFAIRHFENKFAVETLICRFRSFVTCSEQR	inactive
EASNCFAIRHFENKFAVETLICCCSSSPSEIVGR	7.58
EASNCFAIRHFENKFAVETLICPTCSYMYNQAYH	4.21
EASNCFAIRHFENKFAVETLICHSRGFIQVVRRV	inactive
EASNCFAIRHFENKFAVETLICVEGRSVRYGGAG	inactive
EASNCFAIRHFENKFAVETLICVLGRYGEHLKF	inactive
EASNCFAIRHFENKFAVETLICWSQYMPNEPFGK	0.911
EASNCFAIRHFENKFAVETLICVALRTLRLIHPH	inactive
EASNCFAIRHFENKFAVETLICPQESSQGSRNV	-0.317
EASNCFAIRHFENKFAVETLICQY	inactive
EASNCFAIRHFENKFAVETLICGSGYRMLGLRRM	inactive

same assay, conditions: random library (experiment): 2

Sequence	amyloid nucleation score
EASNCFAIRHFENKFAVETLICASEISCQLEFCS	inactive
EASNCFAIRHFENKFAVETLICLWYVWTGIYREC	inactive
EASNCFAIRHFENKFAVETLICLYMSGLDLCFMT	inactive
EASNCFAIRHFENKFAVETLICVI	0.58
EASNCFAIRHFENKFAVETLICEDGA	-0.0862
EASNCFAIRHFENKFAVETLICLFALLGLGSR	inactive
EASNCFAIRHFENKFAVETLICDFCSDTFNDASG	6.28
EASNCFAIRHFENKFAVETLICCDRSHFLCNMLR	4.58
EASNCFAIRHFENKFAVETLICADNLWRFYIVVL	inactive
EASNCFAIRHFENKFAVETLICCFYV	8.27
EASNCFAIRHFENKFAVETLICFIVITLRFHVFV	0.545
EASNCFAIRHFENKFAVETLICDIMYCYEWCATT	inactive
EASNCFAIRHFENKFAVETLICDISQRM	inactive
EASNCFAIRHFENKFAVETLICLDMYDNFVSRPS	2.28
EASNCFAIRHFENKFAVETLICFADSGKMINEYT	-0.239
EASNCFAIRHFENKFAVETLICLVESI	-0.948
EASNCFAIRHFENKFAVETLICCCYVTFMGARQE	4.8

Sequence	amyloid nucleation score
EASNCFAIRHFENKFAVETLICPTMGENTVDVRR	inactive
EASNCFAIRHFENKFAVETLICDRFAAGAGFRGA	inactive
EASNCFAIRHFENKFAVETLICTYWYWQKAVWEG	-0.0296
EASNCFAIRHFENKFAVETLICMTLLGHEVVDDG	inactive
EASNCFAIRHFENKFAVETLICILLFGHVIMESR	inactive
EASNCFAIRHFENKFAVETLICVEDLV	inactive
EASNCFAIRHFENKFAVETLICDSMS	inactive
EASNCFAIRHFENKFAVETLICDSDDPGVRVFRY	inactive
EASNCFAIRHFENKFAVETLICYWRLANF	inactive
EASNCFAIRHFENKFAVETLICIYLPKFYLYLST	inactive
EASNCFAIRHFENKFAVETLICDNANYHMYCSCV	8.04
EASNCFAIRHFENKFAVETLICCCDHLIFFDVCI	inactive
EASNCFAIRHFENKFAVETLICRSTCTTEVCYAS	inactive
EASNCFAIRHFENKFAVETLICTEHFLRFTSWIV	inactive
EASNCFAIRHFENKFAVETLICMMLESNFLAYR	inactive
EASNCFAIRHFENKFAVETLICFSWFLYMGDAVN	4.96
EASNCFAIRHFENKFAVETLICDHVFAYVCSARK	7.73

same assay, conditions: random library (experiment): 3

Sequence	amyloid nucleation score
EASNCFAIRHFENKFAVETLICMHTTLSGKTCGE	inactive
EASNCFAIRHFENKFAVETLICNGKSLWGEMWLK	inactive
EASNCFAIRHFENKFAVETLICMGHSLNCAWSPG	5.27
EASNCFAIRHFENKFAVETLICWVGTWQVQWEWD	0.788
EASNCFAIRHFENKFAVETLICALFEGG	4.32
EASNCFAIRHFENKFAVETLICCSSDVRRSGMWA	6.52
EASNCFAIRHFENKFAVETLICDIAFVYGWEIGN	5.65
EASNCFAIRHFENKFAVETLICVRCGQVRWLSL	inactive
EASNCFAIRHFENKFAVETLICRYAWPDCSRFIR	1
EASNCFAIRHFENKFAVETLICNLSPTSSRSLSQ	6.17
EASNCFAIRHFENKFAVETLICVRGHCRSQATGE	1.14
EASNCFAIRHFENKFAVETLICAMSCYYASVSSR	inactive
EASNCFAIRHFENKFAVETLICVGCGDPIRGLCV	inactive
EASNCFAIRHFENKFAVETLICGILIRLCRGSRG	inactive
EASNCFAIRHFENKFAVETLICIN	inactive

Source: the supplement of paper PMC12067230
